From PMC4242493
The list shows a part of the results. The list includes weakly bound sequences.

target: MaxL homodimer (UniProt P61244); experiment: universal protein-binding microarray (PBM); details: PBS-based mixture, 10 nM His-tagged protein dimer, 2% milk, 200 ng/uL BSA, 50 ng/uL salmon testes DNA, 0.02% TX-100; detection with Alexa 488 anti-His …; high values mean tight binding; most listed sequences are background and not binding sites; double strand, one strand shown
UniProt P61244, sequence (P61244 whole entry): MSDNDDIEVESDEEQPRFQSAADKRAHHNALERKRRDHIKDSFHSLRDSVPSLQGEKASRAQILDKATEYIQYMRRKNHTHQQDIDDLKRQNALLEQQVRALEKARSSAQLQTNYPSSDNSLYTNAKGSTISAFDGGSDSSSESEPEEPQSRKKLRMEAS

Sequence | binding signal (normalized occupancy)
GCCGGCCA | 0.0695
AGTGGATG | 0.0806
AGGGCATC | 0.0776
CGCGCTAC | 0.0819
AGTGGACA | 0.0832
TAAGAAGA | 0.073
CGAGTTAG | 0.0768
TCAAATGA | 0.0748
AGACCTTG | 0.0706
ATGATGAC | 0.0815
AGCCCTGA | 0.0699
ACCCCATA | 0.0838
CGCGTCCC | 0.0699
GATAGCCA | 0.0696
CGCTATTA | 0.075
CCGCATAC | 0.0794
ACTAACGG | 0.072
TCTAGGCA | 0.0711
AAGGCAGA | 0.0759
ACCTGAGG | 0.0673
CAGCGCCA | 0.0711
GCAATTGC | 0.0705

Sequence | binding signal (normalized occupancy)
ACGTCCAG | 0.0714
AACGGGTA | 0.0795
CCACTTCG | 0.0732
CTGTGGCA | 0.0739
CGTACAAA | 0.0748
AGAATGCG | 0.0783
CGTCATCA | 0.0822
AGCAATCC | 0.0708
AGGTCTAC | 0.0715
AAGATTTC | 0.0717
CACACCCG | 0.0841
CAGTTAAG | 0.0719
GCCGGCGA | 0.0629
GGGTGGAC | 0.0796
ACAGGGAT | 0.0814
GGACGCGA | 0.0754
ACTGGTTA | 0.0754
AATCCCGG | 0.0748
CATTAAAG | 0.0825
AGGGCAAG | 0.0725
AACATAGT | 0.0749
AATTAGGG | 0.0765

Sequence | binding signal (normalized occupancy)
GGGCTATA | 0.0788
CAAGGAGA | 0.0729
CTACGCTC | 0.069
ATTAGACG | 0.0762
ACCGTCGC | 0.0681
GTCTAGAC | 0.0727
AGCCGAGA | 0.0688
GATGCCAC | 0.0739
AGCCACTG | 0.0678
CCGATAGC | 0.0729
CGTCTACC | 0.0714
CACTCGAA | 0.0772
TACCGGTA | 0.0753
CGGACAAC | 0.0729
GAGGTTGA | 0.073
ACACGGCG | 0.0799
CACTACAA | 0.0767
CCCCAACA | 0.0773
TCCCTTAA | 0.0756
GACTTACC | 0.0805
ACGTTTAC | 0.0795
GATCACCC | 0.0786

Sequence | binding signal (normalized occupancy)
ACTTGACT | 0.0743
AAATGCGT | 0.0858
GTGCCCAC | 0.0788
TAGTACAA | 0.0729
ATAGTCGA | 0.074
TCAGCACA | 0.0823
CTAACGTA | 0.0783
GGAGTCCA | 0.0766
CAACCCAC | 0.082
CTTTTTAA | 0.07
AAGAATGC | 0.0755
ATCGAGTA | 0.0793
CACCGGAC | 0.0724
ACCCAGGA | 0.0727
AAAAGGGG | 0.072
ACTCAGTC | 0.0717
AAATGTAC | 0.0841
CTCGTAGA | 0.0699
GACTTATA | 0.0764
CTTGTCAA | 0.0754
ACTAGCGG | 0.067
ACACTTAG | 0.0804

Sequence | binding signal (normalized occupancy)
CACACGAC | 0.0877
CCCATCGG | 0.072
ACTTAGAA | 0.0752
CACCTATC | 0.0826
TGGGATAA | 0.0791
AGTACGCA | 0.0726
AGGACATG | 0.0903
GAGCGGTA | 0.0669
TAAGTCAA | 0.0696
CTCCATTC | 0.0774
AATTCGTA | 0.0775
CGATTGGA | 0.0732
AGATTGTC | 0.0748
TCGAACGA | 0.0735
AAATTCGC | 0.0739
TCAGGAAA | 0.0694
AGGAGCCC | 0.0711
TATAAATA | 0.0757
CCTGATCG | 0.0727
CTCTCGCA | 0.0754
ACAGCCAC | 0.0758
